The campaign covered roughly 150,000 compounds. About 180 (0.12%) were called active. Inconclusive results, whose numbers are uncertain, are shown with a selection of clear calls. Calls come from the whole dose curve; as a rule, active = well fitted cell-killing curve with a large enough effect; inconclusive = small, poorly fitted or top-dose-only effect, or effect the other way; inactive = flat fitted curve, though single readings scatter. Potencies beside an inconclusive call are fits to weak or partial responses and may not hold up.
Test: GF-AFC viability counterscreen for inhibitors of alpha-synuclein gene (SNCA) expression; note: nearly all actives have a fitted effect of over 30% in size;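 for activity change, negative = cytotoxicity: 0% = DMSO-treated cells and -100% = medium-only wells without cells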
Details: HEK-293-SNCA-luc viability, GF-AFC fluorescence, 24 h; activity change, negative = cytotoxicity: at 57.1 µM (top of the series) unless noted
Outline: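 HEK-293-SNCA-luc cells (1500/well) plated 24 h, then exposed 24 h to a dilution series; GF-AFC added 30 min at 37C, fluorescence 405/540 nm; normalised to medium-only and DMSO wells, Hill fit.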
With CC1=C[C@@H](CN2CCC(C(N)=O)CC2)[C@H](C(C)C)C[C@H]1Cc1nnc(-c2ccccc2F)o1 the Potency was inconclusive: 39.8 µM [cytotoxic, single point].
In the case of O=C(CCn1c2c(c3ccccc31)CCCC2)N1CCc2nc3cc[nH]n3c(=O)c2C1, the Potency is reported as “inactive”.
With COc1ccc(C(=O)NCCn2cc(SCC(=O)Nc3ccc(C)cc3)c3ccccc32)cc1 the Potency was inconclusive: 35.5 µM [cytotoxic, single point].
With c1ccc(CC2=NCCN2)cc1 the Potency was inconclusive: 1 µM [rising, partial curve, poor fit].
In the case of Cc1cc(C)cc(-c2[nH]nc3ncc(-c4ccsc4)nc23)c1, the Potency is reported as inconclusive: 39.8 µM [rising, single point].
For O=C1C(Oc2ccc(F)cc2)C2(CCCCC2)N1Cc1ccc(F)cc1 (configuration not stated), the Potency was inconclusive: 11.2 µM [cytotoxic, partial curve, poor fit].
In the case of N#Cc1cc(CN2CCCC(C(=O)Nc3cccc(-c4ccc(F)cc4)c3)C2)c[nH]1 (configuration not stated), the Potency is reported as inconclusive: 39.8 µM [cytotoxic, single point].
For COc1cccc(Nc2ncc3nc(CCc4ccccc4)c(=O)n(C4CC4)c3n2)c1, the Potency was inconclusive: 20 µM [rising, single point].
With Clc1ccc(-c2nnc([C@H]3CCN(Cc4ccco4)C3)o2)cc1 the Potency was “inactive”.
With O=[S+]([O-])(Nc1cc(-c2ccccn2)nn1-c1ccccc1)c1ccccc1 the Potency was inconclusive: 31.6 µM [cytotoxic, partial curve, poor fit].
For O=C(O)CCc1nc(-c2ccccc2)c(-c2ccccc2)o1, the Potency was inconclusive: 1 µM [rising, full curve, poor fit].
For Cc1cnc(CNc2ccnc(-c3cccnc3)n2)cn1, the Potency was inconclusive: 17.8 µM [cytotoxic, partial curve, poor fit].
With COc1ccc(CN2CCc3oc(C)c(C(=O)N4CCCCCC4)c3C2)cc1 the Potency was inconclusive: 39.8 µM [cytotoxic, single point].
With O=C(c1ccncc1)N1CCC(Oc2cccc(F)c2)C1 (configuration not stated) the Potency was “inactive”.
With O=C(Nc1ccccc1)N1CC[C@@]2(CCCN(C(=O)c3cc(C(F)(F)F)cc(C(F)(F)F)c3)C2)C1 the Potency was inconclusive: 39.8 µM [rising, single point].
With Cc1ccc(-n2ncc(C(=O)NCc3cccs3)c2C2CCN(C(=O)OC(C)(C)C)CC2)cc1 the Potency was inconclusive: 25.1 µM [cytotoxic, partial curve].
In the case of COc1ccccc1Cn1cc(C(=O)c2ccc(Cl)cc2)c(=O)c2ccccc21, the Potency is reported as inconclusive: 31.6 µM [cytotoxic, partial curve, poor fit].
For CCn1ccc2cc(S(=O)(=O)N3CCC(C(=O)NCCc4ccccc4Cl)CC3)ccc21, the Potency was inconclusive: 17.8 µM [rising, partial curve, poor fit].
In the case of O=C(NCC1CN(Cc2ccncc2)CC12CN(c1ccccc1)C2)Nc1ccccc1 (configuration not stated), the Potency is reported as “inactive”.
With CSc1ccc(CCNC(=O)c2ccc3c(c2)nc2n3CCCCC2)cc1 the Potency was “inactive”.
With CNC(=O)N1CCC(C2CCN(C(=O)Cc3ccsc3)C2)CC1 (configuration not stated) the activity change, negative = cytotoxicity was inactive: 2.01% [at 12.5 µM].
In the case of CC1=C[C@@H](CNCCN2CCOCC2)[C@H](C(C)C)C[C@H]1Cc1nnc(-c2ccc(C)cc2)o1, the Potency is reported as inconclusive: 39.8 µM [cytotoxic, partial curve, poor fit].
For Cn1cc(-c2ccccc2)c2nc(COc3ccc(Cl)cc3)cn2c1=O, the Potency was inconclusive: 31.6 µM [cytotoxic, single point].
In the case of COc1ccc(-c2noc(Nc3cc(OC)c(OC)c(OC)c3)n2)cc1OC, the Potency is reported as inconclusive: 22.4 µM [cytotoxic, single point].
In the case of COc1ccc(NC(=O)C2CCc3nnc(C4CCN([S+](=O)([O-])c5ccccc5Cl)CC4)n32)cc1 (configuration not stated), the Potency is reported as inconclusive: 20 µM [cytotoxic, partial curve, poor fit].
With FC(F)(F)c1cc(C(F)(F)F)c2ccc3nc(-c4nnco4)cn3c2n1 the Potency was “inactive”.
In the case of O=C(CCc1ccnc(N2CCCC2)c1)NCc1cccc(Cl)c1, the Potency is reported as “inactive”.
For O=C(CCn1cccn1)NC1CCCc2nc(-c3ccccc3)ncc21 (configuration not stated), the Potency was inconclusive: 1.12 µM [rising, full curve].
In the case of COC(=O)[C@@H]1Cc2ncn(C(C)C)c2CN1S(=O)(=O)Cc1ccccc1, the Potency is reported as inconclusive: 20 µM [cytotoxic, partial curve, poor fit].
With Cc1nn2c(c1-c1cccnc1N1CCOCC1)N(CCc1ccccc1)CCC2 the Potency was inconclusive: 11.2 µM [cytotoxic, full curve, poor fit].
In the case of COc1cccc(N2C(=O)NC(=NC3CCCCC3)C23CCN(CC2CCCCC2)C3)c1 (configuration not stated), the Potency is reported as inconclusive: 8.91 µM [cytotoxic, single point].
With COc1ccc(-n2c(=O)c(-c3ccc(Cl)cc3)nc3cnc(N4CCOCC4)nc32)cc1 the Potency was inconclusive: 12.6 µM [rising, partial curve].
For CC(C)NC(=O)NCCNC(=O)c1cccc(-c2ccsc2)c1, the activity change, negative = cytotoxicity was inactive: 4.95% [at 12.5 µM].
With CC(C(=O)NCCc1ccccc1)N1C(=O)COc2ccc(C(=O)COc3cccc(Cl)c3)cc21 (configuration not stated) the Potency was inconclusive: 31.6 µM [cytotoxic, single point].
With Cc1nc(NC(=O)N2CCCC2C(N)=O)sc1-c1ccnc(C(C)(C)C(F)(F)F)c1 (configuration not stated) the Potency was inconclusive: 0.844 µM [cytotoxic, full curve, poor fit].
With O=C(Nc1ccc2c(c1)OCCO2)N1CC(c2nc(CCOCC3CC3)no2)C1 the Potency was “inactive”.
For COc1ccc(OC)c(CN2CCOc3ccc(C(=O)NCc4ccc(C)cc4)cc3C2)c1, the Potency was “inactive”.
For COc1ccc(-c2cc3c(=O)n(CCNC(=O)c4cc(OC)cc(OC)c4)ccn3n2)cc1, the Potency was “inactive”.
In the case of CS(=O)(=O)Nc1ccc(C2(C(=O)N3CCN(c4ccccc4)CC3)CCCCC2)cc1, the Potency is reported as “inactive”.
In the case of CC(=O)c1cccc(Nc2ncnc3c2cnn3C)c1, the Potency is reported as “inactive”.
For CCOc1ccc(C2C(C(=O)OC)=C(C)NC3=C2C(=O)c2ccccc23)cc1OC (configuration not stated), the Potency was inconclusive: 0.794 µM [cytotoxic, partial curve, poor fit].
With Cc1cc(Cl)ccc1OCCSc1nnc(-c2cccs2)o1 the Potency was inconclusive: 31.6 µM [cytotoxic, single point].
For CN(C)c1ncc2nc(-c3ccccc3)c(=O)n(C[C@H]3CCCO3)c2n1, the Potency was inconclusive: 20 µM [rising, partial curve].
With CCSc1nc2sc3c(c2c(=O)n1-c1ccc(C)c(Cl)c1)CCN(C(C)=O)C3 the Potency was inconclusive: 39.8 µM [cytotoxic, single point].
For CCc1ccccc1NC(=O)C1c2ccccc2C(=O)N(CCOC)C12CCCC2 (configuration not stated), the Potency was “inactive”.
For COc1ccc(C2=NOC3(CCN([S+](=O)([O-])c4ccccc4)C3)C2)cc1 (configuration not stated), the Potency was inconclusive: 35.5 µM [cytotoxic, partial curve, poor fit].
For COc1ccc(C2(C(=O)N3CCCCCCNC(=O)CC3)CC2)cc1, the Potency was inconclusive: 25.1 µM [cytotoxic, single point].
In the case of Cc1cccc(NC(=O)c2ccc(Cn3nc(N4CCN(c5ccccc5)CC4)ccc3=O)o2)c1C, the Potency is reported as inconclusive: 28.2 µM [cytotoxic, single point].
In the case of Cc1ccc(-c2cc3c(=O)n(CCNC(=O)c4cccc5[nH]ccc45)ccn3n2)cc1C, the Potency is reported as inconclusive: 25.1 µM [cytotoxic, single point].
For O=S(=O)(Cc1ccccc1)N1CCCC1Cc1noc(-c2cnccn2)n1 (configuration not stated), the Potency was inconclusive: 39.8 µM [cytotoxic, single point].
For O=C(O)C1CNCCN(C(=O)c2nc3ccc(F)cc3[nH]2)C1 (configuration not stated), the Potency was “inactive”.
With COc1ccccc1-c1nc(N(C)Cc2ccco2)c2ccccc2n1 the Potency was inconclusive: 35.5 µM [cytotoxic, single point].
For CN(C)c1ccc(C(=O)NCc2ccc3c(c2)CCN3C(=O)c2ccc(Cl)cc2)cc1, the Potency was inconclusive: 28.2 µM [rising, partial curve, poor fit].
With COC1CCC12CCN(C(=O)CCCc1ccccc1)CC2 (configuration not stated) the Potency was “inactive”.
For CC(=O)O[C@H]1CC(C)(C)CC2[C@]13CO[C@@]21CCC2[C@@]4(C)CC[C@H](O[C@@H]5OC[C@H](O[C@@H]6O[C@H](CO)[C@@H](O)[C@H](O)[C@H]6O[C@@H]6OC[C@@H](O[C@@H]7O[C@H](CO)[C@@H](O)[C@H](O)[C@H]7O)[C@H](O)[C@H]6O)[C@H](O)[C@H]5O[C@@H]5O[C@H](CO)[C@@H](O)[C@H](O)[C@H]5O)[C@@](C)(CO)C4CC[C@@]2(C)[C@]1(C)C[C@H]3O (some centres not stated), the Potency was inconclusive: 2.83 µM [cytotoxic, single point].
For COc1ccccc1-c1cccc(CN2CCCC(C(=O)N3CCCC3)C2)c1 (configuration not stated), the Potency was “inactive”.
With CN(C(=O)CSc1nc2ccccc2n1CC(=O)N(C)C1CCCCC1)c1ccc(F)cc1 the Potency was inconclusive: 1 µM [cytotoxic, full curve].
With Cc1cccc(NC(=O)N2CCC(c3cc(-c4cccc(C)c4)n[nH]3)CC2)c1 the Potency was inconclusive: 39.8 µM [cytotoxic, single point].
For CC1(c2ccccc2)N(Cc2ncccn2)C(=O)OC12CCN(C(=O)c1ccc(Oc3ccccc3)cc1)CC2 (configuration not stated), the Potency was “inactive”.
In the case of CCOc1ccc(S(=O)(=O)N2CCC(n3c(C)nc4cccnc43)CC2)cc1, the Potency is reported as inconclusive: 39.8 µM [cytotoxic, single point].
In the case of CC(C)CNC(=O)NCC(=O)N1CCCCCNC(=O)CC1c1ccccc1 (configuration not stated), the Potency is reported as inconclusive: 2.51 µM [rising, full curve, poor fit].
For O=C(Cn1cc(S(=O)(=O)Cc2ccccc2Cl)c2ccccc21)Nc1ccc(F)cc1F, the Potency was inconclusive: 39.8 µM [cytotoxic, single point].

— PubChem BioAssay AID1671193 (National Center for Advancing Translational Sciences (NCATS), 2021)
Potency is the fitted concentration of half-maximal effect; tags give direction and shape of the fitted curve.
